Measured values published in PubChem BioAssay AID686971 (National Center for Advancing Translational Sciences (NCATS), 2013).
The campaign covered roughly 360,000 compounds. About 7,500 (2.1%) were called active. Inconclusive results, whose numbers are uncertain, are shown with a selection of clear calls. Calls follow the shape of the dose curve; as a rule, active = well fitted cell-killing curve with a large enough effect; inconclusive = small, poorly fitted or top-dose-only effect, or effect the other way, or another doubt; inactive = no such curve, though single readings can be large or run the other way. Potencies of inconclusive entries are left out as doubtful fits.

experiment: qHTS for induction of synthetic lethality in tumor cells producing 2HG: qHTS for the HT-1080-IDH1KD cell line; conditions: HT-1080 IDH1 knockdown viability, ATP luminescence, 48 h; activity, negative = toxicity: at 46.1 µM (top of the series) unless noted;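 as to activity, negative = toxicity: 0% = DMSO wells and -100% = cell-free medium wells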
In short: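 Knockdown cells (IDH1KD HT-1080) received compounds 2 h after plating at 750 cells/well and were kept 48 h at 37 °C in 5% FBS RPMI. A CellTiter-Glo luminescence read gave % activity for curve fitting.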
Potency is read from the fitted curve at half-maximal effect; tags tell the direction and shape of the fitted curve.

Q: Which Potency does the source give for `COc1ccc(NC(=O)C2C3C=CC(C3)C2C(=O)NCc2ccco2)cc1` (stereo not drawn) here?
A: inconclusive [rising, single point]

Q: Which “activity, negative = toxicity” value does the source give for `CCOc1ccc(S(=O)(=O)NCCC(=O)N2CC(C)CC(C)C2)cc1` (stereo not drawn) here?
A: inactive: 1.12%

Q: With `Cn1ncc2c(Nc3ccc(-c4ccccc4)cc3)ncnc21` as the compound, how does the Potency read?
A: inconclusive [cytotoxic, single point]

Q: With `NS(=O)(=O)c1ccc(CCNC(=O)c2ccc(Cl)c(S(=O)(=O)N3CCCCCC3)c2)cc1` as the compound, how does the activity, negative = toxicity read?
A: inconclusive: -34.8% [cytotoxic]

Q: With `CC(C)(C)c1ccc(CSc2nnc(-c3ccccn3)n2Cc2ccco2)cc1` as the compound, how does the Potency read?
A: inconclusive [cytotoxic, single point]

Q: For `O=C1C(=Cc2ccccn2)CCc2ccccc21`, which Potency is on record?
A: inconclusive [cytotoxic, partial curve]

Q: With `O=CNc1cc(-c2ccc(C(=O)N3CCOCC3)cc2)cn2c(-c3ccc(F)cc3)cnc12` as the compound, how does the Potency read?
A: active: 13 µM

Q: With `CSc1ccccc1CNc1nc(NCC2CC2)nc2ccsc12` as the compound, how does the Potency read?
A: active: 20.6 µM

Q: With `CC(=O)Nc1cccc(NC(=O)CSc2ncc(C(=O)Nc3ccc(F)cc3)c(=O)n2C)c1` as the compound, how does the Potency read?
A: inconclusive [cytotoxic, partial curve]

Q: With `Cc1cc(C(=O)COc2ccccc2[N+](=O)[O-])c(C)n1-c1cccc(S(=O)(=O)N2CCOCC2)c1` as the compound, how does the activity, negative = toxicity read?
A: inconclusive: -2.19% [cytotoxic]

Q: Which Potency does the source give for `COc1cc(-c2cc(NC=O)c3ncc(-c4ccc(C(C)=O)cc4)n3c2)ccc1O` here?
A: active: 18.4 µM

Q: Which Potency does the source give for `CCCCn1c(NC(=O)c2ccccc2)c(C#N)c2nc3ccccc3nc21` here?
A: inconclusive [cytotoxic, single point]

Q: With `CN1C(=O)C2(c3ccccc31)N(C)CC(c1ccccn1)C21SC(=S)N(Cc2ccco2)C1=O` (stereo not drawn) as the compound, how does the Potency read?
A: inconclusive [cytotoxic, single point]

Q: Which Potency does the source give for `CC(C)C[C@H]1CN([C@@H](Cc2ccccc2)CN2CCC[C@H]2CN2C(=O)C(=O)NC[C@@H]2Cc2ccc(O)cc2)C(=O)C(=O)N1CC1CCCCC1` here?
A: inconclusive [cytotoxic, single point]

Q: For `CCn1c(SCC(=O)NNC(=O)c2ccc(C)cc2)nnc1C(C)C`, which “activity, negative = toxicity” value is on record?
A: inactive: -8.14%

Q: With `O=c1[nH]nc(CNc2ccc(Cl)cc2Cl)c2ccccc12` as the compound, how does the Potency read?
A: inconclusive [cytotoxic, single point]

Q: With `O=C(/C=C/c1ccc(OCc2c(F)cccc2Cl)cc1)N1CCOCC1` as the compound, how does the Potency read?
A: inconclusive [cytotoxic, partial curve]

Q: Which Potency does the source give for `C=CCc1cccc(C=Nc2cc(Br)ccc2O)c1O` here?
A: inconclusive [cytotoxic, partial curve]

Q: Which Potency does the source give for `CC(=O)Oc1ccc(-c2csc(Nc3ccc(Cl)cn3)n2)cc1` here?
A: inconclusive [cytotoxic, single point]

Q: For `CCOC(=O)C1=CCC(c2cccc(Cl)c2)N(S(=O)(=O)c2ccc(C)cc2)C1` (stereo not drawn), which Potency is on record?
A: inconclusive [cytotoxic, single point]

Q: With `O=C(CSCc1ccc(Cl)cc1)Nc1ccc(Br)cc1C(=O)O` as the compound, how does the Potency read?
A: inconclusive [cytotoxic, single point]

Q: With `N#Cc1ccsc1NC(=O)CCc1ccccc1` as the compound, how does the Potency read?
A: inconclusive [cytotoxic, single point]

Q: Which Potency does the source give for `O=C(/C=C/c1ccccc1)c1ccc2ccccc2c1` here?
A: inconclusive [cytotoxic, single point]

Q: With `CCOc1ccc(-n2c(N)c(-c3nc4ccccc4[nH]3)sc2=S)cc1` as the compound, how does the Potency read?
A: inconclusive [cytotoxic, single point]

Q: For `C/C(=N/NC(=O)c1nnn(-c2nonc2N)c1-c1ccccc1)c1ccncc1`, which Potency is on record?
A: inconclusive [cytotoxic, single point]

Q: With `CCOC(=O)c1cccc(-n2c(C)nc3ccccc3c2=O)c1` as the compound, how does the “activity, negative = toxicity” value read?
A: inactive: -0.391%

Q: With `COc1cccc(NC(=O)N2CCc3nc(NCc4cccc(Oc5ccccc5)c4)ncc3C2)c1` as the compound, how does the Potency read?
A: inconclusive [cytotoxic, full curve]

Q: With `NS(=O)(=O)c1ccc(CCNc2ncnc3c2c(-c2ccccc2)cn3-c2ccc(F)cc2)cc1` as the compound, how does the Potency read?
A: inconclusive [cytotoxic, partial curve]

Q: Which “activity, negative = toxicity” value does the source give for `COc1ccc(Cc2nc3ccc(C(=O)N4CCC[C@H]4CO)cc3o2)cc1` here?
A: inactive: -0.654%

Q: With `O=C(Oc1ccccc1N1C(=O)C2CCCCC2C1=O)c1ccccc1` (stereo not drawn) as the compound, how does the Potency read?
A: inconclusive [cytotoxic, partial curve]

Q: With `Cn1c(=S)sc2ccc3ccccc3c21` as the compound, how does the activity, negative = toxicity read?
A: inconclusive: 36.2%

Q: With `CCCCC[C@H](C)N1C[C@H](COCc2ccccc2)Oc2cc(N3CC[C@@H](N(C)C)C3)ccc2S1(=O)=O` as the compound, how does the Potency read?
A: active: 16.4 µM

Q: Which “activity, negative = toxicity” value does the source give for `Cc1cc(OCC(=O)OCC(=O)NCCN2C(=O)CSC2=O)ccc1Cl` here?
A: inactive: 5.08%

Q: With `O=C(Nc1ccc(Cl)cc1)/C(=C/c1cccc(O)c1)c1nc2ccccc2s1` as the compound, how does the Potency read?
A: active: 4.11 µM

Q: Which Potency does the source give for `O=C(Nc1ccccc1N1CCCCC1)c1ncoc1-c1ccc(F)cc1` here?
A: inconclusive [cytotoxic, single point]

Q: Which Potency does the source give for `COc1ccc(-c2ccc(N3C(c4ccsc4)=Cc4ccc(F)cc4C3c3c[nH]c4ccccc34)cc2)cc1` (stereo not drawn) here?
A: inconclusive [cytotoxic, partial curve]

Q: Which Potency does the source give for `COc1ccc(S(=O)(=O)Nc2cc([N+](=O)[O-])ccc2OC)cc1` here?
A: active: 16.4 µM

Q: For `COc1ccc(-c2nn(-c3ccccc3)cc2C(=O)Nc2cccc(S(=O)(=O)NC3=NCCC3)c2)cc1`, which Potency is on record?
A: inconclusive [cytotoxic, single point]

Q: Which “activity, negative = toxicity” value does the source give for `Cc1nc2sc(-c3ccccc3)cc2c(=O)n1-n1cccc1` here?
A: inactive: 6.93%

Q: Which “activity, negative = toxicity” value does the source give for `Cn1c(NC(=O)c2ccc(F)cc2)c(-c2cccs2)c(=O)c2ccccc21` here?
A: inactive: -6.05%

Q: Which activity, negative = toxicity does the source give for `NC(=O)CCCn1c(C(=O)c2cc(Cl)c(N)c(Cl)c2)c2ccc([N+](=O)[O-])cc2[n+]1[O-]` here?
A: inconclusive: -30.3% [cytotoxic]

Q: With `CCn1c(N2CCN(S(=O)(=O)c3ccc(Cl)cc3)CC2)nc2ccccc21` as the compound, how does the Potency read?
A: inconclusive [cytotoxic, single point]

Q: For `O=C(CCC(=O)N(CC(=O)NC1CCCCC1)Cc1cccs1)Nc1ccccn1`, which “activity, negative = toxicity” value is on record?
A: inactive: -0.47%
